Whole data set: some 13,000 compounds, median “IFI” near 4, cut for the highest 2% near 17. The list shows a part of the results.

A short description of the test: GSK_TCMDC: Inhibition Frequency Index (IFI). The number of non-kinase HTS assays where a compound showed > 50 % inhibition, expressed as a percentage of the number of such assays in which the compound was tested (-0 is zero). Type of test: functional.
In turn, `COc1ccc(-n2nc(C)c3c2NC(=O)CC3c2ccccc2OCc2ccccc2F)cc1` (stereo unspecified) registered an IFI of 5.17%.
In turn, `Cc1cc(O)c(-c2ccc(Oc3ccc(F)cc3)cc2)c(C)n1` showed an IFI of -0%.
The value for `O=C(/C=C/c1ccc(Cl)c(Cl)c1)NCCCCCN1CCC(c2c[nH]c3cc(O)ccc23)CC1` was 4.96%; that for `C=CCc1cc(Cc2cnc(N)nc2N)c2ccc(C)nc2c1OC` was 3.01%.
For the compound `CCC(C)CNC(=O)CN1CN(c2ccccc2)C2(CCN(C(=O)c3ccc(Br)cc3)CC2)C1=O` (stereo unspecified), the IFI came to 3.33%.
The value for `Cc1ccc(O)cc1Nc1ccnc2cc(-c3ccncc3)ccc12` was 6.42%; that for `CN1CCN(c2ccc(-c3cc(-c4ccncc4)c(-c4ccc(Cl)c(O)c4)o3)cc2)CC1` was 9.09%.
In the case of `Cc1ccccc1C1CCN(C2CCC(NC(=O)C3=Cc4cc(Cl)ccc4OC3)CC2)CC1` (stereo unspecified) it was 9.84%; in that of `Cc1cc(NC(=O)NCCN2CCC(NS(=O)(=O)c3ccccc3F)CC2)c2ccccc2n1`, 0.88%.
The value for `COc1ccc2c(N/N=C/c3ccc([N+](=O)[O-])cc3)ccnc2c1` was 1.44%.
In the case of `CNCCNCc1cccc(-c2ccc(-c3nc4cccc(C)c4[nH]3)cc2)c1`, the IFI was determined as 9%.
The compound `Cc1cc2nc(-c3ccc(SCC(=O)Nc4ccc5c(c4)OCCO5)nc3)[nH]c2cc1C` yielded an IFI of 2.5%.
The value for `CC(C)C[C@@H](C(=O)N[C@H](C(=O)Nc1nccs1)C(C)(C)C)[C@H](CCC(F)(F)F)N(O)C=O` was 1.46%; that for `C=CCc1cc(Br)ccc1OCCCON1C(N)=NC(N)=NC1(C)C` was 6.72%; that for `COc1cccc(CNC(=O)c2ccnc(-c3cccc(CN(C)C4CCN(C)CC4)c3)c2)c1` was -0%.
In the case of `CN1CCC(c2csc3ccc(NC(=O)Nc4ccc(-c5ccncc5)c5ccccc45)cc23)CC1` it was 4.96%; in that of `O=C(NC1CCN(Cc2ccccc2)CC1)c1cc(-c2ccncc2)c(-c2ccc(Cl)c(O)c2)o1`, 1.52%.
The value for `Cc1cc2ncn(-c3nccc(NCc4ccc(F)cc4)n3)c2cc1C` was 0.78%; that for `CCCC1N=C(N)N=C(N)N1c1ccccc1` (stereo unspecified) was 0%.
The compound `OC1(Cc2ccccc2)CCN(Cc2cccc(-c3c[nH]c4nc(NC5CCCC5)ncc34)c2)CC1` came in with an IFI of 12.5%.
In the case of `N#Cc1ccc(-c2ccc(C(=O)NCCCCN3CCC(c4ccncc4)CC3)cc2)cc1` it was 6.77%; in that of `O=[N+]([O-])c1cnc(Nc2ccccc2O)nc1Nc1ccccc1O`, 19.2%; in that of `CCCCCCCc1c(C)nc2c(OC)cccc2c1O`, 0.71%.
As to `Cc1cc(OC(C)C(=O)N2CCc3ccccc32)ccc1Cl` (stereo unspecified), the IFI was 1.71%.
Compound `COc1ccc2nccc([C@@H](O)CN3CCC(NC(=O)c4ccc(OC)c(N)c4)CC3)c2c1` yielded an IFI of 1.48%.
In the case of `Cc1ccc(CCC(C)NCC(O)c2cccc(Cl)c2)cc1` (stereo unspecified) it was 2.96%; in that of `N#Cc1ccc(CN2CCC(Oc3ccc(NC(=O)c4cccs4)cc3)C2)cc1` (stereo unspecified), 1.56%; in that of `Cc1cccc(-c2nn(-c3ccccc3)c3[nH]c(=O)c(CN4CCSCC4)cc23)c1`, 1.82%.
In the case of `O=C(/C=C/c1ccc(Cl)c(Cl)c1)NCCCCCCN1CCN(C(=O)Nc2ccc(C(F)(F)F)cc2)CC1` it was 7.03%; in that of `CC(C)COc1ccc(Cl)cc1Cc1nc(-c2nc3ccc(CN4CCN(C)CC4)cc3[nH]2)co1`, 5.81%.
In the case of `CC(=O)N/N=C/[C@H](CCc1ccccc1)NC(=O)[C@H](CC(C)C)NC(=O)c1ccc(F)cc1`, the IFI stood at 5.5%.
In the case of `CN(C)Cc1ccc(CN2CCN(CCOc3ccc(-c4ccc(Cl)cc4)cc3)CC2)o1` it was 13.2%; in that of `COc1cc(NC(=O)/C=C/c2cc(F)cc(F)c2F)cc(OCCN2CCC3(CC2)OCCO3)c1`, 1.46%.
The value for `O=C(/C=C/c1ccc(Cl)c(Cl)c1)NCCCCCN1CCCN(C(=O)Nc2ccc(OC(F)F)cc2)CC1` was 6.71%; that for `CCCC(=O)NC(c1ccc(C(C)C)cc1)c1ccc2cccnc2c1O` (stereo unspecified) was 5.11%.
The value for `O=C(/C=C/c1ccc(C(F)(F)F)cc1)N1CCc2cc3nccc(N4CCN5CCC[C@H]5C4)c3cc21` was 0.74%; that for `N=C(N)c1ccc(OCCCCCOc2ccc(C(=N)N)cc2)cc1` was 2.34%.
`CCOC(=O)c1cn(CC)c2cc(N3CCCCC3)c(F)cc2c1=O` returned an IFI of -0%.
`COc1ccccc1NC(=O)CSc1nc2cccnc2n1-c1ccccc1OC`: the IFI came to 1.43%.
The value for `COc1ccc(CCNC(=O)c2cnc3c(c2)nc(-c2c[nH]c(-c4ccccc4)n2)n3CCc2c[nH]cn2)cc1` was 1.49%; that for `Cc1cc(Nc2c(C(N)=O)cnc3cc(-c4ccoc4)ccc23)ccc1N1CCN(C)CC1` was 2.8%; that for `O=C(c1ccc(-c2cnc3[nH]cc(-c4ccc(C(=O)N5CCOCC5)cc4)c3c2)cc1)N1CCOCC1` was 0%.
The value for `O=C(Nc1cc(Oc2ccc(O)cc2)cc([N+](=O)[O-])c1)c1cc(-c2ccc(F)cc2)no1` was 6.38%; that for `CCCc1cnc2nc(N)nc(N)c2c1C` was 2.17%.
The value for `CCN(CC)CCNC(=O)c1ccc(N/C=C2\C(=O)Nc3ccc(S(=O)(=O)Cc4c(Cl)cccc4Cl)cc32)cc1` was 8.33%; that for `Cc1ccc(Nc2nccc(NCC(O)c3ccc(C(F)(F)F)cc3)n2)cc1` (stereo unspecified) was 9.18%.
`Cc1nc2cc(/C=C/C(=O)NC3CCC(CCN4CCc5ccc(C#N)cc5CC4)CC3)ccc2[nH]1` (stereo unspecified) came in with an IFI of 0.76%.
In turn, `O=C(Cn1c(CCc2cccc(F)c2F)cc(=O)c2cccnc21)N(CCn1ccnc1)Cc1ccc(-c2ccc(C(F)(F)F)cc2)cc1` registered an IFI of 0.72%.
Compound `O=C(NCc1ccco1)c1ccc(S(=O)(=O)c2ccc(Cl)cc2)cc1` returned an IFI of 0.9%.
As to `CCCCOc1c(CCNCCCCNCCc2cc(OC)c3ccccc3c2OCCCC)cc(OC)c2ccccc12`, the IFI came to 15%.
`O=C(Nc1ccccc1)N(Cc1cccc(-c2cccc(CNCCc3ccccc3)c2)c1)C1CCN(Cc2ccccc2)CC1` registered an IFI of 12.3%.
The compound `CCOc1cc(Br)c(C(C)NC(=O)c2ccccc2)cc1OCC` (stereo unspecified) displayed an IFI of 0%.
As to `Fc1ccc(-c2nc(NCc3cccc(C(F)(F)F)c3)nn2-c2cccc(C(F)(F)F)c2)cc1C(F)(F)F`, the IFI was found to be 0%.
In turn, `Oc1ccc(CNCCCCCCNCCc2ccc(Cl)cc2)cc1O` registered an IFI of 2.21%.
The value for `Cc1cccc2nc(-c3cccc(-c4cccc(CNCc5cccc(N)c5)c4)c3)[nH]c12` was 4.76%; that for `COc1cc2nc(NCCc3ccccc3)nc(NCc3cc(C)no3)c2cc1OC` was 3.88%; that for `CCCCCCOc1ccc(C(=O)NCCCC2CCN(CCCCCNC(=O)C=Cc3ccc(Cl)c(Cl)c3)CC2)cc1` was 5.34%.
Take `COc1nc2c(CCN3CCC(NCc4ccc5c(c4)NC(=O)CO5)CC3)c(Cl)cnc2cc1F`: the IFI was 2.9%.
The compound `COc1ccc(CNc2nc(NCc3ccc(C(F)(F)F)cc3)c3cc(OC)c(OC)cc3n2)cc1OC` had an IFI of 14.8%.
The value for `NC(=O)c1ccsc1NC(=O)CNC(c1ccccc1)c1ccc(Cl)cc1` (stereo unspecified) was 4.6%; that for `COc1cc(C)nc2ccc(NC(=O)Nc3cccc4ccccc34)cc12` was 1.41%; that for `CCN(c1ccccc1)S(=O)(=O)c1ccc(NC(=O)c2cc(-c3cc(C)ccc3O)n[nH]2)cc1` was 1.05%.
In turn, `COc1ccc(CNC2CCN(C)CC2)cc1-c1ccc(S(=O)(=O)NCc2ccccc2)c(C)c1` yielded an IFI of 9.52%.
The value for `CC1CCCCC1N(C)C1CCN(CCCNC(=O)C=Cc2ccc(Cl)cc2Cl)CC1` (stereo unspecified) was 11.1%.
In the case of `Cc1ccc(O)c(-c2cc(C(=O)Nc3ccc(S(=O)(=O)N4CCCC(C)C4)cc3)[nH]n2)c1` (stereo unspecified) it was 5.8%; in that of `COc1ccc2nccc([C@@H](O)CN3CCC(NC(=O)C(c4cc5ccccc5o4)N4CCC(Cc5ccccc5)CC4)CC3)c2c1` (stereo partly specified), 3.47%; in that of `CC(C)C[C@H](NC(=O)c1ccc(OCCN2CCOCC2)cc1)C(=O)N[C@H](/C=N/NC(=O)OC(C)(C)C)CCc1ccccc1`, 5.45%.
In the case of `CC(C)(C)c1ccc2nccc(Nc3cccc(O)c3)c2c1` it was -0%; in that of `CN1CCCN(Cc2ccc(-c3ccc(NC(=O)c4ccc(Cl)cc4)cc3)cc2)CC1`, 7.07%.
`COc1ccc2c(=NN=C(C)c3ccccn3)cc(C)[nH]c2c1` displayed an IFI of 4.96%.
In the case of `CCn1c2ccccc2c2cc(C=NN=c3cc(C)[nH]c4ccccc34)ccc21` it was 9.93%; in that of `N=C(N)NCCCC(=O)NCC(N)=O`, 0.72%; in that of `Cn1c(=N)n(CC(=O)OCc2ccc(OCc3ccccc3)cc2)c2ccccc21`, 2.22%.
In turn, `CCCCCCN1CCN(Cc2cccc(NC(=O)c3ccc(Cl)c(Cl)c3)c2)CC1` showed an IFI of 11.2%.
The value for `CC(C)Oc1ccc2c(c1)OC(c1ccccc1)(C(F)(F)F)NC2=O` (stereo unspecified) was 2.78%; that for `CC(C)CN(Cc1c(O)ccc2[nH]c(-c3ccc(F)cc3F)nc12)CC(C)C` was 0%.
In the case of `CCc1cccc(-n2c(=O)c3cccnc3n2CC(=O)NCc2ccccc2Cl)c1` it was -0%; in that of `O=C(Nc1cccc(CN2CCCN(Cc3ccc(F)cc3)CC2)c1)c1ccc(Cl)c(Cl)c1`, 6.12%.
In the case of `O=C(/C=C/c1ccc(CNCCN2CCOCC2)cc1)NCCc1ccccc1` it was 0%.
In turn, `Cc1nc2ccccc2c(=O)n1NCc1ccc(Cl)c(Cl)c1` gave an IFI of 0.7%.
The value for `O=[N+]([O-])c1ccc2nc(Nc3ccc(Cl)c(Cl)c3)c(Nc3ccc(Cl)c(Cl)c3)nc2c1` was 2.86%; that for `CCCN1CCN(CC(O)CNC(=O)Nc2ccc(Cl)cc2)CC1` (stereo unspecified) was -0%.
The value for `O=C(Nc1cccc(C(F)(F)F)c1)NC1CCN(c2ccnc3cc(Cl)ccc23)CC1` was 4.76%; that for `NCc1ccc(CNCc2cccc(-c3ccc(-c4nc5cc(C(F)(F)F)ccc5[nH]4)cc3)c2)cc1` was 14.8%.
The value for `COc1c(C2CCN(CCCCNC(=O)C=Cc3ccccc3C(F)(F)F)CC2)ccc2c1CCCC2` was 11.1%; that for `O=C(CCc1ccccc1)N[C@H](Cc1c[nH]c2ccccc12)C(=O)N1CCC(NCc2ccc3c(c2)Cc2ccccc2-3)CC1` was 8.76%.
In the case of `COc1ccc(CNC(=O)c2cc3c(=O)n4ccccc4nc3n(CCc3ccccc3)c2=N)cc1`, the IFI is 4.27%.
In the case of `CC12CN3CC(C)(CN(C1)C3c1cc(Br)ccc1O)C2O` (stereo unspecified) it was -0%; in that of `Cc1cc(OCCCN2CCCCC2)ccc1NC(=O)COc1ccc(Cl)cc1C(=O)c1cc(Cl)cc(C#N)c1`, 7.14%; in that of `C=CC[C@H](C[C@H](O)[C@H](Cc1ccccc1)NC(=O)c1nn(-c2ccccc2)nc1C)C(=O)NC1CCCCC1`, -0%.
The compound `CC1CCN(CC[C@H]2CCCN2S(=O)(=O)c2cccc(NC(=O)c3cc4ccccc4s3)c2)CC1` displayed an IFI of 4.93%.
